# The other results are listed elsewhere or left out.
# B1: Gal 3 (Canis lupus) (protein)
# chain: MADSFSLNDALSGSGNPNPQGWPGPWGNQPAGAGGYPGASYPGAYPGQAPPGGYPGQAPPGGYPGQAPPGGYPGQAPPGGYPGQAPPGGYPGQAPPGTYPGPTAPAYPGPTAPGTQPGQPSGPGAYPPPGQPSAPGAYPAAGPFGIPAGPLTVPYDLPLPGGVKPRMLITILGTVRPSANRLALDFKRGNDVAFHFNPRFNEDNKRVIVCNTKLDNIWGKEERQAAFPFESGKPFKIQVLVESDHFKVAVNDAHLLQYNHRMKNLPEISKLGISGDIDLTSASYAMI
# Tests used:
# Test in all cases: glycan array binding signal (z-score within array); higher = stronger binding
# Details in all cases: glycan notation: IUPAC condensed, linker removed
# [1] = biological target: GlcNAc(a1-4)Gal(b1-4)GlcNAc(b1-3)Gal(b1-4)Glc
# Outline: (§1)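 The binding signal is a Z-score computed within each array. Data were drawn from 3228 arrays in the Consortium for Functional Glycomics database, restricted to those with a known protein sequence. Scores were averaged over arrays of the same protein sequence at different concentrations or buffers, and over linkers, and negative values can be taken as non-binding.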
# [2] = biological target: GlcNAc(a1-4)Gal(b1-4)GlcNAc(b1-3)Gal(b1-4)GlcNAc
# Outline: as §1
# [3] = biological target: GlcNAc(a1-4)Gal(b1-4)GlcNAc(b1-3)Gal(b1-4)GlcNAc(b1-3)Gal(b1-4)GlcNAc
# Outline: as §1
# [4] = biological target: GlcNAc(a1-4)Gal(b1-4)GlcNAc(b1-3)Gal(b1-4)[Fuc(a1-3)]GlcNAc(b1-3)Gal(b1-4)[Fuc(a1-3)]GlcNAc
# Outline: as §1
# [5] = biological target: GlcNAc(a1-6)Gal(b1-4)GlcNAc
# Outline: as §1
# [6] = biological target: GlcNAc(b1-2)Gal(b1-3)GalNAc
# Outline: as §1
# [7] = biological target: GlcNAc(b1-2)Man(a1-3)[GlcNAc(b1-2)Man(a1-6)]Man(b1-4)GlcNAc(b1-4)GlcNAc
# Outline: as §1
# [8] = biological target: GlcNAc(b1-2)Man(a1-3)[GlcNAc(b1-2)Man(a1-6)]Man(b1-4)GlcNAc(b1-4)[Fuc(a1-6)]GlcNAc
# Outline: as §1
# [9] = biological target: GlcNAc(b1-2)Man(a1-3)[GlcNAc(b1-4)][GlcNAc(b1-2)Man(a1-6)]Man(b1-4)GlcNAc(b1-4)GlcNAc
# Outline: as §1
# [10] = biological target: GlcNAc(b1-2)[GlcNAc(b1-4)]Man(a1-3)[GlcNAc(b1-2)Man(a1-6)]Man(b1-4)GlcNAc(b1-4)GlcNAc
# Outline: as §1
# [11] = biological target: GlcNAc(b1-2)[GlcNAc(b1-4)]Man(a1-3)[GlcNAc(b1-4)][GlcNAc(b1-2)Man(a1-6)]Man(b1-4)GlcNAc(b1-4)GlcNAc
# Outline: as §1
# [12] = biological target: GlcNAc(b1-2)[GlcNAc(b1-4)]Man(a1-3)[GlcNAc(b1-4)][GlcNAc(b1-2)[GlcNAc(b1-6)]Man(a1-6)]Man(b1-4)GlcNAc(b1-4)GlcNAc
# Outline: as §1
# [13] = biological target: GlcNAc(b1-2)[GlcNAc(b1-6)]Man(a1-6)[GlcNAc(b1-2)Man(a1-3)]Man(b1-4)GlcNAc(b1-4)GlcNAc
# Outline: as §1
# [14] = biological target: GlcNAc(b1-2)[GlcNAc(b1-6)]Man(a1-6)[GlcNAc(b1-2)Man(a1-3)][GlcNAc(b1-4)]Man(b1-4)GlcNAc(b1-4)GlcNAc
# Outline: as §1
# [15] = biological target: GlcNAc(b1-3)Gal
# Outline: as §1
# [16] = biological target: GlcNAc(b1-3)Gal(b1-3)GalNAc
# Outline: as §1
# [17] = biological target: GlcNAc(b1-3)Gal(b1-4)Glc
# Outline: as §1
# [18] = biological target: GlcNAc(b1-3)Gal(b1-4)GlcNAc
# Outline: as §1
# [19] = biological target: GlcNAc(b1-3)Gal(b1-4)GlcNAc(b1-3)Gal(b1-4)GlcNAc
# Outline: as §1
# [20] = biological target: GlcNAc(b1-3)GalNAc
# Outline: as §1
# [21] = biological target: GlcNAc(b1-3)Man
# Outline: as §1
# [22] = biological target: GlcNAc(b1-3)[GlcNAc(b1-4)][GlcNAc(b1-6)]GlcNAc
# Outline: as §1
# [23] = biological target: GlcNAc(b1-3)[GlcNAc(b1-6)]Gal(b1-4)GlcNAc
# Outline: as §1
# [24] = biological target: GlcNAc(b1-3)[GlcNAc(b1-6)]GalNAc
# Outline: as §1
# [25] = biological target: GlcNAc(b1-4)Gal(b1-4)GlcNAc
# Outline: as §1
# [26] = biological target: GlcNAc(b1-4)GlcNAc
# Outline: as §1
# [27] = biological target: GlcNAc(b1-4)GlcNAc(b1-4)GlcNAc
# Outline: as §1
# [28] = biological target: GlcNAc(b1-4)GlcNAc(b1-4)GlcNAc(b1-4)GlcNAc(b1-4)GlcNAc
# Outline: as §1
# [29] = biological target: GlcNAc(b1-4)GlcNAc(b1-4)GlcNAc(b1-4)GlcNAc(b1-4)GlcNAc(b1-4)GlcNAc
# Outline: as §1
# [30] = biological target: GlcNAc(b1-4)[GlcNAc(b1-6)]GalNAc
# Outline: as §1
# [31] = biological target: GlcNAc(b1-6)Gal(b1-4)GlcNAc
# Outline: as §1
# [32] = biological target: GlcNAc(b1-6)GalNAc
# Outline: as §1
# [33] = biological target: GlcNAc3Prop(b1-4)GlcNAc
# Outline: as §1
# [34] = biological target: GlcNAc6S(b1-3)Gal(b1-4)GlcNAc
# Outline: as §1
# [35] = biological target: Kdn(a2-3)Gal(b1-3)GalNAc
# Outline: as §1
# [36] = biological target: Kdn(a2-3)Gal(b1-3)GlcNAc
# Outline: as §1
binder,measurement,setting,value
B1,glycan array binding signal (z-score),[1],-0.039
same,glycan array binding signal (z-score),[2],1.71
same,glycan array binding signal (z-score),[3],3.48
same,glycan array binding signal (z-score),[4],-0.164
same,glycan array binding signal (z-score),[5],-0.252
same,glycan array binding signal (z-score),[6],-0.259
same,glycan array binding signal (z-score),[7],-0.271
same,glycan array binding signal (z-score),[8],-0.251
same,glycan array binding signal (z-score),[9],-0.144
same,glycan array binding signal (z-score),[10],-0.259
same,glycan array binding signal (z-score),[11],-0.16
same,glycan array binding signal (z-score),[12],-0.15
same,glycan array binding signal (z-score),[13],-0.144
same,glycan array binding signal (z-score),[14],-0.148
same,glycan array binding signal (z-score),[15],-0.264
same,glycan array binding signal (z-score),[16],-0.259
same,glycan array binding signal (z-score),[17],-0.242
same,glycan array binding signal (z-score),[18],0.005
same,glycan array binding signal (z-score),[19],1.06
same,glycan array binding signal (z-score),[20],-0.263
same,glycan array binding signal (z-score),[21],-0.262
same,glycan array binding signal (z-score),[22],-0.266
same,glycan array binding signal (z-score),[23],-0.259
same,glycan array binding signal (z-score),[24],-0.251
same,glycan array binding signal (z-score),[25],-0.24
same,glycan array binding signal (z-score),[26],-0.248
same,glycan array binding signal (z-score),[27],-0.252
same,glycan array binding signal (z-score),[28],-0.275
same,glycan array binding signal (z-score),[29],-0.254
same,glycan array binding signal (z-score),[30],-0.262
same,glycan array binding signal (z-score),[31],-0.262
same,glycan array binding signal (z-score),[32],-0.261
same,glycan array binding signal (z-score),[33],-0.246
same,glycan array binding signal (z-score),[34],-0.222
same,glycan array binding signal (z-score),[35],-0.259
same,glycan array binding signal (z-score),[36],-0.149

# Reference: the supplement of paper PMC8728848
